Experimental data from the supplement of paper PMC12217912.
The other results are listed elsewhere or left out. The full chains were built here from the parent and the listed change. Values near 0.05 are background.

B1: TEV protease; numbered along this chain (parent)
chain: MGESLFKGPRDYNPISSSICHLTNESDGHTTSLYGIGFGPFIITNKHLFRRNNGTLVVQSLHGVFKVKDTTTLQQHLVDGRDMIIIRMPKDFPPFPQKLKFREPQREERICLVTTNFQTKSMSSMVSDTSCTFPSGDGIFWKHWIQTKDGQCGSPLVSTRDGFIVGIHSASNFTNTNNYFTSVPKNFMELLTNQEAQQWVSGWRLNADSVLWGGHKVFMVKPEEPFQPVKEATQL

Variants of: B1
Assay: raw area under fraction-flipped curve 0-4 h after induction (AUC4h, not background-subtracted), DNA-recorder readout of cleavage of the substrate (dimensionless); higher = more cleavage of the substrate by the protease variant
Details: temperature: 34 °C; time window: 0-4 h after rhamnose induction
Procedure: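 In vivo DNA recorder in E. coli TOP10(DE3) ΔrhaA at 34 °C. Each TEVp single-site mutant (parent TEVp 0) is paired with a single-site variant of the 7-mer TEVs (canonical ENLYFQ|S). The substrate sits between flexible linkers in a Bxb1-sfGFP-TEVs-SsrA fusion, so cleavage stabilises Bxb1 and speeds flipping of a recombination array, read by NGS. The value is the raw area under the fraction-flipped curve over 0-4 h after rhamnose induction (AUC4h), with ≥20 reads per time point. It is not background-subtracted; inactive controls average about 0.047.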
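Further: Bxb1 expression induced with 0.2% (w/v) L-rhamnose at OD600 near 0.5, cultures sampled hourly, flipped fraction per protease–substrate barcode pair counted by paired-end Illumina sequencing.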

Row | Variant | area with substrate ENLYFQC | area with substrate ENLYFQG | area with substrate ENLYFQI | area with substrate ENLYFQK | area with substrate ENLYFQM | area with substrate ENLYFQR | area with substrate ENLYFQS | area with substrate ENLYFQY | area with substrate ENLYFQN | area with substrate ENLYFQP | area with substrate ENLYFQT | area with substrate ENLYFQV | area with substrate ENLYFQW | area with substrate ENLYFQD | area with substrate ENLYFQF | area with substrate ENLYFQH | area with substrate ENLYFQL | area with substrate ENLYFQQ
1 | MGESLFKGPRDYNPISSSICHLTNESDGHTTSLYGIGFGPFIITNKHLFRRNNGTLVVQSLHGVFKVKDTTTLQQHLVDGRDMIIIRMPKDFPPFPQKLKFREPQREERICLVTTNFQTKSMSSMVSDTSCTFPSGDGIFWKHWIQTKDGQCGSPLVSTRDGFIVGAHSASNFTNTNNYFTSVPKNFMELLTNQEAQQWVSGWRLNADSVLWGGHKVFMVKPEEPFQPVKEATQL [I167A] | 0.0543 | 0.088 | 0.0508 | 0.061 | 0.0489 | 0.0534 | 0.0708 | 0.0465 |  |  |  |  |  |  |  |  |  | 
2 | MGESLFKGPRDYNPISSSICHLTNESDGHTTSLYGIGFGPFIITNKHLFRRNNGTLVVQSLHGVFKVKDTTTLQQHLVDGRDMIIIRMPKDFPPFPQKLKFREPQREERICLVTTNFQTKSMSSMVSDTSCTFPSGDGIFWKHWIQTKDGQCGSPLVSTRDGFIVGIHSAFNFTNTNNYFTSVPKNFMELLTNQEAQQWVSGWRLNADSVLWGGHKVFMVKPEEPFQPVKEATQL [S171F] | 0.0569 | 0.09 | 0.0611 | 0.0478 |  | 0.0654 | 0.0597 |  | 0.0666 | 0.065 | 0.0593 | 0.0422 | 0.0712 |  |  |  |  | 
3 | MGESLFKGPRDYNPISSSICHLTNESDGHTTSLYGIGFGPFIITNKHLFRRNNGTLVVQSLHGVFKVKDTTTLQQHLVDGRDMIIIRMPKDFPPFPQKLKFREPQREERICLVTTNFQTKSMSSMVSDTSCTFPSGDGIFWKHWIQTKDGQCGSPLVSTRDGFIVGIHSAMNFTNTNNYFTSVPKNFMELLTNQEAQQWVSGWRLNADSVLWGGHKVFMVKPEEPFQPVKEATQL [S171M] | 0.0663 | 0.0784 | 0.0522 | 0.0622 | 0.0683 | 0.0601 | 0.0614 | 0.0604 | 0.0584 |  | 0.0453 | 0.043 | 0.0593 | 0.0589 | 0.0558 | 0.0559 | 0.0965 | 0.0813
4 | MGESLFKGPRDYNPISSSICHLTNESDGHTTSLYGIGFGPFIITNKHLFRRNNGTLVVQSLHGVFKVKDTTTLQQHLVDGRDMIIIRMPKDFPPFPQKLKFREPQREERICLVTTNFQTKSMSSMVSDTSCTFPSGDGIFWKHWIQTKDGQCGSPLVSTRDGFIVGIHSASNFTNTLNYFTSVPKNFMELLTNQEAQQWVSGWRLNADSVLWGGHKVFMVKPEEPFQPVKEATQL [N177L] | 0.141 |  | 0.0447 | 0.0646 | 0.0658 | 0.0445 | 0.142 | 0.0768 |  | 0.0618 |  | 0.0656 | 0.0716 | 0.0554 | 0.14 | 0.0939 |  | 
5 | MGESLFKGPRDYNPISSSICHLTNESDGHTTSLYGIGFGPFIITNKHLFRRNNGTLVVQSLHGVFKVKDTTTLQQHLVDGRDMIIIRMPKDFPPFPQKLKFREPQREERICLVTTNFQTKSMSSMVSDTSCTFPSGDGIFWKHWIQTKDGQCGSPLVSTRDGFIVGIHSASNFTNTNNYNTSVPKNFMELLTNQEAQQWVSGWRLNADSVLWGGHKVFMVKPEEPFQPVKEATQL [F180N] | 0.0611 | 0.064 |  |  | 0.0448 | 0.0339 | 0.0535 | 0.0482 | 0.0523 | 0.0408 | 0.043 | 0.0628 | 0.0417 |  | 0.0403 |  | 0.0636 | 
6 | MGESLFKGPRDYNPISSSICHLTNESDGHTTSLYGIGFGPFIITNKHLFRRNNGTLVVQSLHGVFKVKDTTTLQQHLVDGRDMIIIRMPKDFPPFPQKLKFREPQREERICLVTTNFQTKSMSSMVSDTSCTFPSGDGIFWKHWIQTKDGQCGSPLVSTRDGFIVGIHSASNFTNTNNYFTSVPKNFMELATNQEAQQWVSGWRLNADSVLWGGHKVFMVKPEEPFQPVKEATQL [L191A] | 0.0797 | 0.0645 |  |  | 0.054 | 0.0577 | 0.076 | 0.0687 | 0.0234 |  | 0.0566 |  | 0.0456 |  |  | 0.0696 | 0.0529 | 
7 | MGESLFKGPRDYNPISSSICHLTNESDGHTTSLYGIGFGPFIITNKHLFRRNNGTLVVQSLHGVFKVKDTTTLQQHLVDGRDMIIIRMPKDFPPFPQKLKFREPQREERICLVTTNFQTKSMSSMVSDTSCTFPSGDGIFWKHWIQTKDGQCGSPLVSTRDGFIVGIHSASNFTNTNNYFTSVPKNFMELLTNQEAQQWVRGWRLNADSVLWGGHKVFMVKPEEPFQPVKEATQL [S201R] | 0.0607 |  | 0.0538 | 0.0736 | 0.104 |  | 0.101 | 0.0652 | 0.0739 |  |  |  | 0.0789 |  |  | 0.107 | 0.0562 | 
8 | MGESLFKGPRDYNPISSSICHLTNESDGHTTSLYGIGFGPFIITNKHLFRRNNGTLVVQSLHGVFKVKDTTTLQQHLVDGRDMIIIRMPKDFPPFPQKLKFREPQREERICLVTTNFQTKSMSSMVSDTSCTFPSGDGIFWKHWIQTKDGQCGSPLVSTRDGFIVGIHSASNFTNTNNYFTSVPKNFMELLTNQEAQQWVSGWRLNADSVLWGGHKPFMVKPEEPFQPVKEATQL [V217P] | 0.0563 | 0.0424 | 0.0733 | 0.0508 | 0.0594 | 0.0563 | 0.0609 |  | 0.0557 | 0.0376 | 0.0566 | 0.0528 | 0.0563 | 0.0632 | 0.0572 | 0.0525 | 0.0564 | 0.0599
9 | MGESLFKGPRDYNPISSSICHLTNESDGHTTSLYGIGFGPFIITNKHLFRRNNGTLVVQSLHGVFKVKDTTTLQQHLVDGRDMIIIRMPKDFPPFPQKLKFREPQREERICLVTTNFQTKSMSSMVSDTSCTFPSGDGIFWKHWIQTKDGQCGSPLVSTRDGFIVGIHSASNFTNTNNYFTSVPKNFMELLTNQEAQQWVSGWRLNADSVLWGGHKVFMVFPEEPFQPVKEATQL [K221F] | 0.101 | 0.0918 |  | 0.0637 | 0.0696 | 0.0638 | 0.0945 |  | 0.0899 | 0.0579 | 0.0606 | 0.0593 | 0.0591 | 0.0811 | 0.0621 | 0.0669 | 0.0573 | 0.0629
